Consider five compounds from patent US11286261B2, “Fourth-generation EGFR tyrosine kinase inhibitor” (NAGASAKI UNIVERSITY, priority 2017, dated 2022).

For data set [1], the system named is EGFR (T790M/L858R/C797S) gene-transfected BaF3 cell. Kind of data set: proliferation inhibitory activity using EGFR (T790M/L858R/C797S) gene-transfected BaF3 cell (MTT). It is filed as cell-based. The following applies: Mus musculus, 96 h, +IL-3, 4 days.
Data set [2] has as its system EGFR (del exon19/T790M) gene-transfected BaF3 cell. Description: proliferation inhibitory activity using EGFR (del exon19/T790M) gene-transfected BaF3 cell (MTT). The class given is cell-based. To be noted: Mus musculus, 96 h, +IL-3, 4 days.
The test system of data set [3] is EGFR (L858R/T790M) gene-transfected BaF3 cell. Kind of data set: proliferation inhibitory activity using EGFR (L858R/T790M) gene-transfected BaF3 cell (MTT). It is filed as cell-based. The following applies: Mus musculus, 96 h, +IL-3, 4 days.
For data set [4], the system named is EGFR L858R/T790M gene-transfected PC-9 cell. Kind of data set: proliferation inhibitory activity in EGFR (L858R/T790M) gene-transfected PC-9 cell (MTT). It is filed as cell-based. To be noted: Homo sapiens, 96 h, PC-9 transfected with EGFR L858R/T790M, 4 days. As to the method:
(§1) The proliferation inhibitory activity of compound 26d in a lung adenocarcinoma cell line was examined. […] Two days later, 2 μg/mL puromycin was added and resistant cells were selected. These cells and A549 cells expressing wild-type EGFR were seeded in a 96 well microplate (Thermo Fisher Scientific, Inc.) respectively at 3,000 cells/well and 7,500 cells/well, various concentrations of the test compound were added, and the cells were cultured in 150 μL of the medium for 4 days. 15 μL of 5 mg/mL MTT (thiazolyl blue tetrazolium bromide) solution was added to the well, the cells were incubated at 37° C. for 4 hr, 100 μL of 20% SDS was added, and the cells were further incubated overnight.

The subject of data set [5] is PC-9 cells expressing EGFR (del exon19/T790M/C797S). Kind of data set: antitumor effect in a mouse xenograft model. It is filed as in vivo, Balb/c nude mouse. The following applies: 0.2 mg intraperitoneally every day, nude mice. As to the method: The therapeutic effect of compound 26d at the animal level was examined using a mouse zenograft model. PC-9 cells expressing EGFR (del exon19/T790M/C797S) were prepared at 5×10^7 cells and mixed with Matrigel (Becton Dickinson Company, LTD.) at 1:1 ratio. These were subcutaneously injected by 100 μL into Balb/c nude mouse (CHARLES RIVER LABORATORIES JAPAN, INC.) After tumor formation was verified, compound 26d (0.2 mg) was intraperitoneally administered every day and the tumor diameters were measured. The tumor volume was calculated by the major axis (mm)×the minor axis (mm)^2/2.

Data set [6] has as its system A549 cells expressing wild-type EGFR. Kind of data set: proliferation inhibitory activity in EGFR wild-type A549 (MTT). The class given is cell-based. As to the method:
as §1

For data set [7], the system named is EGFR signal (phosphorylation of EGFR, ERK, AKT) in PC-9 cells expressing EGFR (del exon19/T790M) or EGFR (del exon19/T790M/C797S). Description: inhibition of EGFR signal by western blotting in PC-9 cells. To be noted: 4 hr, FIG. 2.
In data set [8] the test system is wild-type EGFR gene-introduced BaF3 cell. Description: proliferation inhibitory activity of compound 26d in wild-type EGFR gene-introduced BaF3 cell (MTT). It is filed as cell-based. The following applies: Mus musculus, 96 h, BaF3 EGFR WT, +IL-3 10 ng/mL, 4 days. As to the method: The selectivity of compound 26d for EGFR with an activating mutation was examined using BaF3 cells expressing wild-type EGFR without an activating mutation. […] Two days later, 1 μg/mL puromycin was added and resistant cells were selected. The cells were washed twice with PBS, seeded in a 96 well microplate (Thermo Fisher Scientific, Inc.) at 30000 cells/well, 10 ng/mL EGF or IL-3 and various concentrations of compound 26d were added and the cells were cultured in 150 μL of the medium for 4 days. 15 μL of 5 mg/mL MTT (thiazolyl blue tetrazolium bromide) solution was added to the well, the cells were incubated at 37° C. for 4 hr, 100 μL of 20% SDS was added, and the cells were further incubated overnight.

Data set [9] relates to EGFR del exon19/T790M gene-transfected PC-9 cell. Kind of data set: proliferation inhibitory activity in EGFR (del exon19/T790M) gene-transfected PC-9 cell (MTT). It is filed as cell-based. The following applies: Homo sapiens, 96 h, PC-9 transfected with EGFR del exon19/T790M, 4 days. The protocol:
as §1

In data set [10] the test system is EGFR (del exon19/T790M/C797S) gene transfected BaF3 cell. Description: proliferation inhibitory activity using EGFR (del exon19/T790M/C797S) gene transfected BaF3 cell (MTT). It is filed as cell-based. To be noted: Mus musculus, 96 h, +IL-3, 4 days.

Broadly, the IC50 is the concentration that inhibits the measured activity by half. High values mean weaker potency in that assay, low ones greater potency in that assay. Consider `COc1ccc(-c2c3c4cc(OC)c(OCCCN(C)C)cc4oc(=O)c3n3ccc4cc(O)c(OC)cc4c23)cc1O` [compound 26a], for which the IC50 turned out to be 4360 nM in data set [1], 6560 nM in data set [2] and 4510 nM in data set [3].

In the case of `COc1ccc(-c2c3c4cc(O)c(OCCCN(C)C)cc4oc(=O)c3n3ccc4cc(O)c(OC)cc4c23)cc1O` [compound 26b], the IC50 in data set [1] is 1830 nM; in data set [2], 2170 nM; in data set [3] it was 3050 nM.

As for `COc1ccc(-c2c3c4cc(OCCN(C)C)c(OCCN(C)C)cc4oc(=O)c3n3ccc4cc(O)c(OC)cc4c23)cc1O` [compound 26c], the figures for the IC50 in data set [1], in data set [2] and in data set [3] were 650 nM, 260 nM and 500 nM, respectively.

Take `COc1ccc(-c2c3c4cc(OCCCN(C)C)c(OCCCN(C)C)cc4oc(=O)c3n3ccc4cc(O)c(OC)cc4c23)cc1O` [compound 26d]: the IC50 amounted to 719 nM in [4]; 900 nM in data set [1]; 920 nM in [2]; 970 nM in [3]; 902 nM in [8]; 494 nM in [9]. Further, the “body weight during the treatment period” value in data set [5] (FIG. 4) is “body weight loss was not observed”. For the same compound, in data set [5] (subcutaneous transplant, FIG. 3), the “tumor enlargement (tumor volume)” value is on record as “suppressed the tumor enlargement”. Moreover, in data set [6], the “selectivity, PC-9 with activating mutation compared to A549 wild-type EGFR” value was “selective for EGFR with an activating mutation”. The “phosphorylation of AKT in the downstream of EGFR signal” value in [7] is “not obvious”. In data set [7], the “phosphorylation of EGFR” value is “suppressed”. Also, the “phosphorylation of ERK in the downstream of EGFR signal” value in data set [7] is given as “suppressed”.

Regarding `COc1ccc(-c2c3c4cc(OC)c(OCCCN(C)C)cc4[nH]c(=O)c3n3ccc4cc(O)c(OC)cc4c23)cc1O` [compound 33], the IC50 in data set [1] was 130 nM; in [10], 150 nM; in data set [3], 180 nM.
